# Assay results as given in patent publication US20220073613A1, “ACTIVATABLE MASKED ANTI-CTLA4 BINDING PROTEINS” (Xilio Development, Inc., priority 2018, published 2022).
# B1: Antibody 2-6: unmasked parental Antibody 2 with S239D and I332E; heavy chain SEQ ID NO: 421, light chain SEQ ID NO: 334 (antibody)
# heavy: QVQLVQSGAEVKKPGSSVKVSCKASGYTFTNYFMNWVRQAPGQGLEWMGRVDPEQGRADYAEKFKKRVTITADKSTSTAYMELSSLRSEDTAVYYCARRAMDNYGFAYWGQGTLVTVSS[human IgG1 constant region with changes left out here]
# light: EIVLTQSPDFQSVTPKEKVTITCSANSALSYMYWYQQKPDQSPKLWVHGTSNLASGVPSRFSGSGSGTDFTLTINSLEAEDAATYYCHHWSNTQWTFGGGTKVEIKRTVAAPSVFIFPPSDEQLKSGTASVVCLLNNFYPREAKVQWKVDNALQSGNSQESVTEQDSKDSTYSLSSTLTLSKADYEKHKVYACEVTHQGLSSPVTKSFNRGEC
# Assays:
# human CTLA4-Fc = target: T1, human CTLA4-Fc (Homo sapiens, UniProt P16410); assay: Low density antigen binding ELISA, with or without protease activation; details: Table 12, Protease +
# T1 construct: purchased R&D Systems 7268-CT
# Experimental: Masked antibodies were buffer exchanged into MMP cleavage buffer prior to incubation with the protease. For activation, protease (Anaspec, ProsecBio, and R&D Systems) was diluted to 100 ng/μL in MMP cleavage buffer (50 mM Tris pH 8.0, 150 mM NaCl, 10 mM CaCl2). APMA (10 mM in DMSO) was added to a final concentration of 1 mM. The enzyme was incubated at 37° C. for 1 hour. Activated protease was added to the masked antibodies at a ratio of 1:1000 antibody:protease (e.g., 1 ug MMP to 1 mg antibody) or an equal amount of buffer was added to negative control samples. Samples were incubated at 37° C. overnight.
# Polystyrene 96-well microplates (Fisher #07-200-591) were coated with 1 μg/mL of human CTLA4-Fc (R&D #7268-CT) per well and stored overnight at 4° C. Plates were washed with 0.05% Tween in TBS (TBS-T), blocked with 1% BSA (Sigma Aldrich #B4287-25G), and washed with TBS-T. Serial dilutions of samples containing anti-CTLA4 antibodies were made in assay buffer (PBS+0.05% Tween+1% BSA), added to plate, and shaken orbitally at 100 RPM at room temperature for one hour. After washing with TBS-T, anti-human Kappa light chain [clone: SB81a]-HRP (Abcam #ab79115) diluted to 1:8000 in assay buffer was applied to the wells and shaken at room temperature for one hour. Plates were washed with TBS-T, HRP substrate (Super Signal Pico Chemiluminescent Substrate, Thermo #37069) was applied to plate, and luminescence was recorded using a spectrophotometer (BioTek). Data was analyzed with GraphPad Prism.
# Humanized anti-CTLA4 antibodies were used in low density antigen binding ELISA described in Example 7. For assessing activation of masked activatable forms of the humanized anti-CTLA4 antibodies, recombinant proteases were used as outlined in Example 6.
# Serial dilutions of the antibodies were made in assay buffer, added to 96-well microplates coated with human CTLA4-Fc, and shaken at room temperature for one hour. Plates were washed with TBS-T, blocked with BSA, and washed again with TBS-T. The antibodies were added to plate and shaken. After washing, anti-human Kappa light chain (conjugated to HRP) in assay buffer was applied to the wells and shaken at room temperature. Plates were washed again before HRP substrate was added. Luminescence was recorded using a spectrophotometer and data analyzed with GraphPad Prism.
# FIG. 10A and FIG. 10B show binding studies with masked and unmasked versions of Antibody 2 in the absence (FIG. 10A) or presence (FIG. 10B) of protease. […] Higher concentrations of antibodies are necessary to show binding as evidenced by the shift to the right of the unmasked Antibody 2-6 and the IgG1 isotype (FIG. 10A). Masked antibodies are considered occluded by masking peptide. The occlusion of each masked antibody is shown in Table 7, below, and is calculated by dividing the EC50 for the masked antibody by the EC50 of the unmasked parental antibody, Antibody 2-6.
# Unmasked parental Antibody 2-6 was included as a control and was not exposed to protease. Protease digestion was performed according to the protocol provided in Example 6.
# A comparison of the in vitro sensitivity of the cleavable peptide sequences to select proteases is shown as radar plots in FIG. 11A-H. Activation of each antibody by each protease on the radar plot is depicted using a radar plot, where activation is depicted as ranging from 0 (no activation) to 1.0 (full activation). […] The occlusion of each masked antibody is shown in Table 12, below, and is calculated by dividing the EC50 for the masked antibody by the EC50 of the unmasked parental antibody, Antibody 2-6. Binding was conducted according to the protocol provided in Example 7 and Example 8 and proteolytic treatment of the antibodies was conducted to according to the protocol provided in Example 6 and Example 8. A solution of masked anti-CTLA4 antibody (1000 nM) was made in appropriate cleavage buffer. Two antibody samples were aliquoted into two 0.5 mL Eppendorf tubes. […]
# [1] = system: peripheral blood mononuclear cells (PBMCs); assay type: cell-based, human; details: non-activated (without exposure to protease); compared to isotype control
# MC38 tumors = assay: MC38 tumor volume in mouse model with a knock-in with human CTLA4; assay type: in vivo; details: single injection of 20 μg, 7 μg, or 2 μg; compared to Antibody 2-10
# Experimental: In another set of experiments, MC38 cells (1×10^6) were injected subcutaneously into a mouse model with a knock-in with human CTLA4. MC38 tumor-beating mice were administered a single injection of 200 μg of a test antibody (e.g., IgG control, Antibody 2-1, Antibody 2-10, ipilimumab, or an afucosylated form of ipilimumab (ipilimumab-aFuc) and immunophenotyping was performed on CD45+ splenic cells and CD45+ intratumoral cells five days after injection. In some studies, tumor volume over time was measured following a single injection of 20 μg, 7 μg, or 2 μg of the test antibody. CD45+ cells were assessed for markers including those selective for CD3+/ICOS+, CD3+ T cells, CD4+/Ki67+, CD3+/Ki67+, CD4+/ICOS+, CD4+ T cells, CD8+/ICOS+, CD8+ T cells, Tregs+/ICOS+, CD8+/Ki67+, Tregs, Tregs+/Ki67+, with relative proportions of CD45+ cells having those markers identified.
# MB49 tumors = assay: MB49 murine bladder tumor model, efficacy and pharmacodynamics; assay type: in vivo, C57/BL6-huCTLA4 mice
# Experimental: Efficacy and pharmacodynamics (PD) of anti-CTLA4 antibodies were assessed using the MB49 murine bladder tumor model. Efficacy was assessed by administering each test antibody (RSV-m control antibody, ipilimumab, Antibody 2-6, Antibody 2-14, and Antibody 2-15) and then assessing tumor volume and body weight. The anti-RSV control antibody contains S239D and I332E mutations (RSV-m control antibody). Peripheral immunophenotyping was also carried out on day 5, which assessed the percentage of CD4+Ki67+ cells and the percentage of CD4+ICOS+ cells in the peripheral blood on day 5 following administration. As used herein, dosing in mg/kg is also referred to as “mpk.” MB49 cells were inoculated subcutaneously into C57/BL6-huCTLA4 mice. Treatment started when the tumors reached approximately 350 mm^3. A One-way ANOVA with Dunnett's post-test was performed to determine the statistical significance of treatment vs control (RSV-m control). *P<0.05; **P<0.01; ***P<0.001; ****P<0.0001.
# Pharmacodynamics is assessed by administering antibody to each of five cohorts of mice, with dosing (mg/kg) as shown in Table 16. Immunophenotyping among other readouts are performed in the tumor, liver, spleen, and blood. T cells are assessed by measuring Foxp3+CD25+ cells as a percentage of CD4+ cells, and CD8+ cells are measured as a percentage of CD45+ cells. Cleavage and drug levels in tumors, liver, kidney, spleen, and plasma is also assessed.
# [2] = system: Ki67+ cells in CD4+ cells; assay: Pharmacodynamic effects in cynomolgus monkeys; details: cynomolgus monkey, in vivo
# Experimental: In a first set of experiments, cynomolgus monkeys were administered ipilimumab, Antibody 2-6, Antibody 2-10, or an isotype control, and pharmacodynamic (PD) effects were assessed by measuring the percentage (%) of Ki67+ cells in CD4+ cells. In a second set of experiments, cynomolgus monkeys were administered Antibody 2-6, Antibody 2-10, Antibody 2-14, Antibody 2-16, or an isotype control, and pharmacodynamic effects were assessed by measuring the percentage (%) of Ki67+ cells in CD4+ cells.
molecule,measurement,setting,value
B1,Occlusion,human CTLA4-Fc,1.0
same,IL-2 production,[1],promoted strong IL-2 production
same,tumor volume over time,MC38 tumors,tumor growth is suppressed
same,anti-tumor activity (tumor volume),MB49 tumors; 0.3 mg/kg dose,superior anti-tumor activity as compared to ipilimumab
same,CD8/Treg ratios in tumors,"MB49 tumors; 3 mg/kg, day 7",highest CD8/Treg ratios
same,tumor weight,"MB49 tumors; 3 mg/kg, day 7",lowest tumor weights
same,"peripheral PD effects, percentage (%) of Ki67+ cells in CD4+ cells",[2],more potent at inducing peripheral PD effects than ipilimumab
